Assay results as given in patent publication US20050152899A1, “EphA2 agonistic monoclonal antibodies and methods of use thereof” (priority 2002, published 2005).

Legend:
control MCF-7 cells = assay: Colony formation in soft agar, control MCF-7 cells; type: cell-based; settings: tamoxifen 1 μM, EA5 10 μg/ml
Procedure: (§1) Tumor cells were suspended in soft agar. Colony formation in soft agar was assayed as described in Zelinski et al. (2001, Cancer Res. 61: 2301-6). Antibodies or a control solution (PBS) was included in bottom and top agar solutions. […] Colony formation was scored microscopically using an Olympus CK-3 inverted phase-contrast microscope outfitted with a 40× objective. Clusters containing at least three cells were scored as a positive. The average number of colonies per high-powered field is shown. Ten separate high-power microscopic fields were averaged in each experiment, and the results shown are representative of at least three separate experiments.
(§2) Growth assays were conducted as follows. MCF-7^neo (control cells) or MCF7^EphA2 cells were seeded in 96-well plates. […] Colony formation in soft agar was performed as previously described (Zelinski et al., 2001, Cancer Res. 61: 2301-6) and scored microscopically, defining clusters of at least three cells as a positive. The data represent the average of ten separate high-power microscopic fields from each sample and representative of at least three separate experiments. Error bars represent the standard error of the mean of at least three different experiments as determined using Microsoft Excel software.
Sensitivity of MCF-7^EphA2 cells to tamoxifen was measured. […]

[1] = tested on: A549 malignant lung cancer cells; assay: Colony formation in soft agar, A549 cells; type: cell-based; settings: 10 μg/ml or 2.5 μg/ml, 7 days at 37° C., vs PBS
Procedure: Tumor cells were suspended in soft agar. Colony formation in soft agar was assayed as described in Zelinski et al. (2001, Cancer Res. 61: 2301-6). Antibodies or a control solution (PBS) was included in bottom and top agar solutions. Cells were suspended in soft agar for 7 days at 37° C. in the presence of purified antibody or control solution (PBS), administered at the time of suspension. Colony formation was scored microscopically using an Olympus CK-3 inverted phase-contrast microscope outfitted with a 40× objective. Clusters containing at least three cells were scored as a positive. The average number of colonies per high-powered field is shown. Ten separate high-power microscopic fields were averaged in each experiment, and the results shown are representative of at least three separate experiments.
(§3) A549 malignant lung cancer cells were incubated with either 10 μg/ml or 2.5 μg/ml of EA5 or EA2 monoclonal antibodies or a control (PBS). […] Benign MCF-7 breast epithelial tumor cells were converted to malignant cells by the overexpression of EphA2 (MCF-7^EphA2). Both tumor cell types were incubated with either EA5 monoclonal antibodies or a control (PBS). […] Results are reported as colonies per high-powered field (HPF).

EphA2 [2] = molecular target: T1, EphA2 (Homo sapiens, UniProt P29317); assay: EphA2 tyrosine phosphorylation and degradation in MDA-MB-231 cells (immunoprecipitation / western blot); type: cell-based; parameters: endogenous in cells; host or cells: MDA-MB-231; MCF-10A; settings: MDA-MB-231 monolayers
Procedure: EphA2 antibodies promoted tyrosine phosphorylation and degradation of EphA2 in MDA-MB-231 (FIGS. 1A-1C) cells. Monolayers of cells were incubated in the presence of EA5 (FIGS. 1A-1B, lanes 2, 3) or EA2 (FIGS. 1A-1B, lanes 4, 5) or control (FIGS. 1A-1B, lane 1) for 8 minutes at 37° C. Cell lysates were then immunoprecipitated with an EphA2-specific antibody (D7, purchased from Upstate Biologicals, Inc., Lake Placid, N.Y. and deposited with the American Type Tissue Collection on Dec. 8, 2000, and assigned ATCC number PTA 2755), resolved by SDS-PAGE and subjected to western blot analysis with a phosphotyrosine-specific antibody (4G10, purchased from Upstate Biologicals, Inc., Lake Placid, N.Y.) (FIG. 1A). The membranes were stripped and re-probed with the EphA2-specific antibody used in the immunoprecipitation (D7) as a loading control.
Western blot analyses and immunoprecipitations were performed as described previously (Zantek et al., 1999, Cell Growth Diff. 10: 629-38). Briefly, detergent extracts of cell monolayers were extracted in Tris-buffered saline containing 1% Triton X-100 (Sigma, St. Louis, Mo.). […] Antibody binding was detected by enhanced chemiluminescence (Pierce, Rockford, Ill.) and autoradiography (Kodak X-OMAT; Rochester, N.Y.). […]

EphA2 [3] = molecular target: T1, EphA2; assay: EphA2 tyrosine phosphorylation and degradation in A549 cells (immunoprecipitation / western blot); type: cell-based; parameters: endogenous in cells; settings: A549 monolayers
Procedure: Western blot analyses and immunoprecipitations were performed as described previously (Zantek et al., 1999, Cell Growth Diff. 10: 629-38). Briefly, detergent extracts of cell monolayers were extracted in Tris-buffered saline containing 1% Triton X-100 (Sigma, St. Louis, Mo.). After measuring protein concentrations (BioRad, Hercules, Calif.), 1.5 mg of cell lysate was immunoprecipitated, resolved by SDS-PAGE and transferred to nitrocellulose (Protran, Schleicher and Schuell, Keene, N.H.). Antibody binding was detected by enhanced chemiluminescence (Pierce, Rockford, Ill.) and autoradiography (Kodak X-OMAT; Rochester, N.Y.).
Similar experiments were conducted with A549 cells. Monolayers of A549 cells were incubated at 37° C. in the presence of EA5 or EA2 or control (PBS) for either 10 minutes (FIGS. 2A-2B) or 5 hours (FIGS. 2C-2D). Cell lysates were then immunoprecipitated with an EphA2-specific antibody (D7), resolved by SDS-PAGE and subjected to western blot analysis with a phosphotyrosine-specific antibody (4G10, purchased from Upstate Biologicals, Inc., Lake Placid, N.Y.) (FIGS. 2A, 2C). The membranes were stripped and re-probed with the EphA2-specific antibody used in the immunoprecipitation (D7) as a loading control (FIGS. 2B, 2D). […] (FIG. 2D).

[4] = molecular target: T2, EphA2-Ephrin A1-Fc complex (Homo sapiens, UniProt P29317); assay: Competition for labeled EA5 on EphA2-Ephrin A1-Fc complex; type: binding; settings: biotinylated EA5 10 μg/ml, 30 min.
T2 construct: consisting of the extracellular domain of EphA2 linked to human IgG1 constant region
Procedure: (§4) A microtiter plate was coated with […] Ephrin A1-Fc overnight at 4° C. A fusion protein consisting of the extracellular domain of EphA2 linked to human IgG1 constant region (EphA2-Fc) was incubated with and bound to the immobilized Ephrin A1-Fc. Biotinylated Ephrin A1-Fc or EA5 was incubated with the EphA2-Ephrin A1-Fc complex and amount of binding was measured.
The EphA2-Ephrin A1-Fc complex was prepared as described above. Biotinylated EA5 (10 μg/ml) was then incubated with the complex for 30 min. Unlabeled competitor was incubated with EphA2-Ephrin A1-Fc-EA5 complex in the indicated amount. Unlabeled EA5 could displace the labeled EA5 at concentrations of 100 ng/ml or greater.

A549 lung cancer cells = assay: Tumor growth in vivo, A549 cells implanted into athymic mice; settings: 6 mg/kg intraperitoneally twice a week for 3 weeks, vs negative control
Procedure: (§5) EA5 can inhibit tumor cell growth in vivo. 5×10^6 MDA-MB-231 breast cancer cells were implanted orthotopically or subcutaneously and 5×10^6 A549 lung cancer cells were implanted subcutaneously into athymic mice. After the tumors had grown to an average volume of 100 mm^3, mice were administered 6 mg/kg of an EA5 or negative control (PBS or 1A7 antibody) intraperitoneally twice a week for 3 weeks. Animals were generally sacrificed at least two weeks after the last treatment or when tumors exceeded 2000 mm^3. Tumor growth was assessed and expressed either as a ratio of the tumor volume divided by initial tumor volume (100 mm^3) or as total tumor volume.

[5] = molecular target: T2, EphA2-Ephrin A1-Fc complex; assay: Binding to EphA2-Ephrin A1-Fc complex on microtiter plate; settings: EphA2-Fc bound to immobilized Ephrin A1-Fc
Procedure: as §4

[6] = tested on: MDA-MB-231 breast cancer cells; assay: Tumor growth in vivo, MDA-MB-231 cells implanted into athymic mice; settings: 6 mg/kg intraperitoneally twice a week for 3 weeks
Procedure: as §5

EphA2 [7] = molecular target: T1, EphA2; assay: EphA2 expression in MCF-7^EphA2 cells after EA5 (western blot); type: cell-based; parameters: expressed in transfected cells; host or cells: MCF-7; settings: 3 μg/ml EA5
Procedure: Estrogen-sensitive breast cancer cells, MCF-7 cells, were transfected with and stably overexpressed human EphA2 (MCF-7^EphA2) (pNeoMSV-EphA2 provided by Dr. T. Hunter, Scripps Institute). Western blot analyses confirmed the ectopic overexpression of EphA2 in transfected cells relative to matched controls (data not shown).
Growth MCF-7^EphA2 cells which had decreased EphA2 expression levels was assayed in soft agar. The EphA2 monoclonal antibody EA5 induced EphA2 activation and subsequent degradation. […] Whereas EA5 decreased soft agar colonization (by 19%), the combination of EA5 and tamoxifen caused a much more dramatic (>80%) decrease in soft agar colonization.

[8] = tested on: malignant prostate cancer cells; assay: Immunoreactivity on formalin-fixed, paraffin-embedded archival clinical specimens; type: binding
From the text: (§6) The epitope of the EphA2 antibodies were characterized. EA5 and EA2 selectively bind to malignant cells. The anti-EphA2 monoclonal antibodies EA5 and EA2 bind malignant MDA-MB-231 breast epithelial tumor cells (FIGS. 11A-11B) more strongly than benign MCF-10A breast epithelial tumor cells (FIGS. 11C-11D) as shown by immunofluorescent staining. […] The anti-EphA2 monoclonal antibody EA5 identified malignant prostate cancer cells in formalin-fixed, paraffin-embedded archival clinical specimens (FIG. 12).

EphA2 [9] = molecular target: T1, EphA2; assay: Flow cytometry of EA5 binding to EphA2 with or without EGTA; parameters: endogenous in cells; host or cells: MDA-MB-231; MCF-10A; settings: 10 μg/ml EA5
Procedure: An equivalent experiment was performed using MCF-10A or MDA-MB-231 cells. The amount of EA5 binding to EphA2 was measured using flow cytometry (FIGS. 14C-14D). Cells were either treated by incubation in 4 mM EGTA for 10-15 minutes on ice (top panel) or were not treated with EGTA (middle panel) before incubation with 10 μg/ml EA5. Cells were then fixed with 3% formalin and labeled with fluorophore-labeled donkey anti-mouse IgG. Control cells were incubated only with secondary antibody (fluorophore-labeled donkey anti-mouse IgG) in the absence of primary antibody (EA5) (bottom panel). The samples were then evaluated using flow cytometry (Becton Dickinson FACStar Plus).

MCF-7^EphA2 cells = assay: Colony formation in soft agar, MCF-7^EphA2 cells; type: cell-based
Procedure: as §1, §3, §2
Sensitivity of MCF-7^EphA2 cells to tamoxifen was measured.
Growth MCF-7^EphA2 cells which had decreased EphA2 expression levels was assayed in soft agar.

EphA2 [10] = molecular target: T1, EphA2; assay: Immunofluorescent staining of MDA-MB-231 and MCF-10A cells; type: binding; parameters: endogenous in cells; host or cells: MDA-MB-231; MCF-10A
From the text: as §6
EA5 preferentially binds an EphA2 epitope exposed on cancer cells but not non-cancer cells. Non-transformed MCF-10A cells or transformed MDA-MB-231 cells were incubated with 10 μg/ml EA2 at 4° C. for 30 min. prior to fixation in a 3% formalin solution and immunolabeling with fluorophore-conjugated anti-mouse IgG.

T1 sequence (P29317 24-976): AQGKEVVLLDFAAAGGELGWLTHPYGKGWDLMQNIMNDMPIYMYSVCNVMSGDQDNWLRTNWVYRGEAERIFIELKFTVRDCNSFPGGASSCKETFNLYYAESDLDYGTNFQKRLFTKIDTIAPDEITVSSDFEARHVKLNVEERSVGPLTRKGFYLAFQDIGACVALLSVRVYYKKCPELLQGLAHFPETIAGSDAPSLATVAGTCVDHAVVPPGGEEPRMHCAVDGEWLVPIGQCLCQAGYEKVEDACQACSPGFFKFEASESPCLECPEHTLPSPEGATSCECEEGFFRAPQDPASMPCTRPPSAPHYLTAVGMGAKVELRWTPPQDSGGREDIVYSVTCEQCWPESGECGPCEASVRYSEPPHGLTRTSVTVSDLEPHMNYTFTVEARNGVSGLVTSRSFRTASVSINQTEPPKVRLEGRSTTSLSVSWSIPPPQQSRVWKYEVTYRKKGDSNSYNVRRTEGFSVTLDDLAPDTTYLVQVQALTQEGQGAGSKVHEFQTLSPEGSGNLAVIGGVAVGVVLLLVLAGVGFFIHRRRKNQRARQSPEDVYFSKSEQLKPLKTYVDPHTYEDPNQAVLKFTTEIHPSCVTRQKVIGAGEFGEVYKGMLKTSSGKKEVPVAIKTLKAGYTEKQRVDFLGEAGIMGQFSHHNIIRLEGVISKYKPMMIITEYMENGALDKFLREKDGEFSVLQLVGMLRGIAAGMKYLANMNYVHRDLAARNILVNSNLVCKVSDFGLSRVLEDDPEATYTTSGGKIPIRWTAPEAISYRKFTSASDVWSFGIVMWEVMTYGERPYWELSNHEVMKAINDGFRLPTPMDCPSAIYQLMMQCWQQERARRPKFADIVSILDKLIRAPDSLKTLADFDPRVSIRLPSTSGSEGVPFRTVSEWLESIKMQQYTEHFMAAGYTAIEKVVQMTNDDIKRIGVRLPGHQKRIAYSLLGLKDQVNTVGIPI
T2 sequence (P29317 24-537 limits assumed): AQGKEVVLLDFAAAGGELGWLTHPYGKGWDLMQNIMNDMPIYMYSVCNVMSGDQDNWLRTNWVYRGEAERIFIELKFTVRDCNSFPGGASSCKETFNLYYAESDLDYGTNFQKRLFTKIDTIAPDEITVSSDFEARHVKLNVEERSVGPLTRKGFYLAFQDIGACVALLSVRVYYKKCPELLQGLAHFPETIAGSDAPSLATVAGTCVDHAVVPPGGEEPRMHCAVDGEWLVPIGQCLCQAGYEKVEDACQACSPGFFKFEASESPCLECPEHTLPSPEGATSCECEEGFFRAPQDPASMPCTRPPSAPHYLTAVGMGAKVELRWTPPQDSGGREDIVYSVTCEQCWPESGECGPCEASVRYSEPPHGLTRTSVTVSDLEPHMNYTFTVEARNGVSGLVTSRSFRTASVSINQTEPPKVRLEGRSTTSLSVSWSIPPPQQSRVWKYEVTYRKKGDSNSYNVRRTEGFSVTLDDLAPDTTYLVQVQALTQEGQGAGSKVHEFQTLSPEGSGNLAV
T2 sequence (P20827 19-182 partner limits assumed): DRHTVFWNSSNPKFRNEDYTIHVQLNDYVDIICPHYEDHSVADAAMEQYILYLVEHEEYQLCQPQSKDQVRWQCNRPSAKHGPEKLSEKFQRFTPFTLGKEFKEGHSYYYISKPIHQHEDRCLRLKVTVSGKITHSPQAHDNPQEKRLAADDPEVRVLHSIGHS

B1: EA5: EphA2 agonistic monoclonal antibody; hybridoma strain EA5.12, ATCC PTA-4381; VL SEQ ID NO:17, VH SEQ ID NO:21 (antibody, listed as Home sapiens, V domains shown)
VH: EVQLQQSGPELVKTGASVKISCKASGYSFTGYYMHWVKQSHGKSLEWIGYISCYNGVTSYNQKFKGKATFTVDTSSSTAYMQFNSLTSEDSAVYYCARSHAMDYWGQGTSVTVSS
VL: DVVMTQTPLTLSVTIGQPASISCKSSQSLLYSNGKTYLNWLLQRPGQSPKRLIYLVSKLDSGVPDRFTGSGSGTDFTLKISRVEAEDLGVYYCVQGSHFPWTFGGGTKLEIK
modifications: EA5.12 Heavy chain variable region; EA5.12 Light chain variable region
- Effect of EA5 on tamoxifen response of soft agar colonization (control MCF-7 cells): did not further alter this response
- Cell growth in soft agar (colonies per high-powered field) [1]: inhibited cell growth in soft agar
- EphA2 protein levels (EphA2 [2]; 30 μg/ml, 24 hours at 37° C.): decrease
- Levels of EphA2 phosphorylation (EphA2 [2]; 8 minutes at 37° C., phosphotyrosine western blot): increase
- EphA2 phosphorylation (EphA2 [3]; 10 minutes at 37° C.): increase in phosphorylation
- EphA2 protein degradation (EphA2 [3]; 5 hours at 37° C.): degradation of the EphA2 protein
- Concentration of unlabeled competitor that displaces labeled EA5 [4]: ≥ 100 ng/mL
- Tumor growth, cells implanted subcutaneously (A549 lung cancer cells): inhibited
- Amount of biotinylated protein bound to EphA2-Ephrin A1-Fc complex [5]: considerable levels of EA5 bound
- Tumor growth, cells implanted orthotopically ([6]; vs PBS or 1A7 antibody): inhibited growth
- Tumor growth, cells implanted subcutaneously ([6]; vs negative control): inhibited growth
- Levels of EphA2 expression (EphA2 [7]): Decreased levels of EphA2 expression were observed within two hours
- Time EphA2 remained undetectable (EphA2 [7]): ≥ 24 h
- Immunoreactivity against prostate cells [8]: immunoreactive against malignant prostate cells
- Effect of EGTA treatment on binding to non-transformed cells (EphA2 [9]; MCF-10A, 4 mM EGTA 10-15 minutes on ice): increased by incubation in EGTA
- Effect of EGTA treatment on binding to transformed cells (EphA2 [9]; MDA-MB-231, 4 mM EGTA 10-15 minutes on ice): did not affect
- Ability to grow in soft agar (colonies per high-powered field) (MCF-7^EphA2 cells; 7 days at 37° C., vs PBS): inhibits the ability of MCF-7^EphA2 cells to grow in soft agar
- Decrease in soft agar colonization (MCF-7^EphA2 cells; MCF-7^EphA2 cells, tamoxifen 1 μM and/or EA5 10 μg/ml (FIG. 10C)): 19%
- Sensitivity of MCF-7^EphA2 cells to tamoxifen (MCF-7^EphA2 cells; soft agar, tamoxifen 1 μM, EA5 10 μg/ml): increased the sensitivity
- Binding to EphA2 on transformed MDA-MB-231 vs non-transformed MCF-10A cells (EphA2 [10]; 10 μg/ml, 4° C., 30 min., before fixation): preferentially binds EphA2 on transformed cells
- Binding to EphA2 on MCF-10A cells with or without EGTA (EphA2 [10]; 4 mM EGTA for 20 min., immunofluorescence): bound EphA2 on the EGTA dissociated cells but not the untreated cells
- Binding to malignant MDA-MB-231 vs benign MCF-10A cells (EphA2 [10]; immunofluorescent staining): more strongly
